According to PubChem BioAssay AID651820 (National Center for Advancing Translational Sciences (NCATS), 2012):
The whole screen tested about 340,000 compounds, of which about 12,000 (3.5%) were called active. Inconclusive results, whose numbers are uncertain, are shown with a selection of clear calls. Calls come from the whole dose curve; as a rule, active = well fitted inhibition curve with a large enough effect; inconclusive = small, poorly fitted or top-dose-only effect, or another doubt; inactive = no such curve, though single readings can be large or run the other way. No potency is given beside an inconclusive call; the fits are too rough.
% is set by controls: 0 for no effect and ±100 for the full control effect; potency is the fitted concentration of half-maximal effect; tags give direction and shape of the fitted curve.

Experiment: qHTS Assay for Inhibitors of Hepatitis C Virus (HCV)
Settings: Huh7.5.1 HCVcc-Cre (HCVcc is cell-culture hepatitis C virus) infection, luciferase reporter, 44 h; activity change, negative = inhibition: at 41.8 µM (top of the series) unless noted
How it was run: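 1,000 cells/well; 4 h culture; + compound; + HCVcc-Cre (~0.5 moi); 44 h; luciferase substrate, RT 15 min; read 15 sec.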
With `O=C(Cc1ccc(S(=O)(=O)N2CCCCC2)s1)Nc1ccc(F)c(F)c1` the Potency was inconclusive [inhibitor, single point]. For `O=C(Nc1cc(C(F)(F)F)ccc1N1CCCC1)C1CCCO1` (centres undefined), the “activity change, negative = inhibition” value was inactive: -18.9%. For `CCCOc1ccc(N/C=C/C(=O)c2ccc(OC)c(OC)c2)cc1`, the Potency was inconclusive [inhibitor, partial curve, poor fit]. For `Oc1ccc(-c2nc3ccccn3c2NCc2ccc3c(c2)OCO3)cc1`, the Potency was inconclusive [inhibitor, single point]. With `CC(C)n1c2ccccc2c2nnc(SCC(=O)Nc3ccccc3C(=O)O)nc21` the “activity change, negative = inhibition” value was inactive: 6.32%. For `Cc1cc(N2C(=O)C=CC2=O)c([N+](=O)[O-])cc1C`, the Potency was inconclusive [inhibitor, single point]. For `Nn1c(Nc2ccccc2)nc2sc3c(c2c1=O)CCCC3`, the Potency was inconclusive [inhibitor, single point]. With `CN(C)C(=O)C(Sc1ccc(S(=O)(=O)N2CCCC2)cn1)c1ccccc1` (centres undefined) the Potency was inconclusive [inhibitor, single point]. In the case of `Cc1cccnc1CNC(=O)C1CCC(=O)N(CCc2cccc(F)c2)C1` (centres undefined), the “activity change, negative = inhibition” value is reported as inactive: -0.456%. With `COc1c2occc2c(OC(C)=O)c2c(=O)cc(C)oc12` the “activity change, negative = inhibition” value was inactive: -28%. For `COc1ccc(/C=N/c2c(-c3ccco3)nc3ccccn23)cc1OC`, the “activity change, negative = inhibition” value was inactive: 22.6%. With `CCOc1cc(N2CCOCC2)c(OCC)cc1NC(=O)CC12CC3CC(CC(C3)C1)C2` the Potency was inconclusive [inhibitor, single point]. For `Cc1nc2ccccc2c(=O)n1-c1ccc(NS(=O)(=O)c2ccc(F)cc2)cc1`, the Potency was inconclusive [inhibitor, single point]. For `Cc1cc(C(C)(C)C)oc1C(=O)N(CC(=O)NC1CCCC1)Cc1ccc(Cl)cc1`, the Potency was inconclusive [inhibitor, partial curve]. With `CCCCCCSc1cccc(-c2nc3ccc(Cl)cn3c2NCc2ccccc2)c1` the Potency was inconclusive [inhibitor, single point]. With `CCOc1cc(C)c(-c2onc(C(F)(F)F)c2-c2csc(C)n2)c(O)c1` the Potency was inconclusive [inhibitor, single point]. For `CC1C=CCC2C(=O)N(c3cccc(C(=O)Nc4ccc(Br)cc4)c3)C(=O)C12` (centres undefined), the Potency was inconclusive [inhibitor, single point]. With `CC(=O)Nc1ccc2oc(-c3ccccc3)nc2c1` the “activity change, negative = inhibition” value was inactive: -2.8%. In the case of `CN(C)C(=O)[C@@H]1C[C@H]1[C@@H](NC(=O)OCc1ccccc1)c1ccccc1`, the activity change, negative = inhibition is reported as inactive: -10.8% [at 8.37 µM]. With `CCOc1ccccc1N(C(=O)c1ccco1)C(C(=O)NC1CCCC1)c1cccnc1` (centres undefined) the Potency was inconclusive [inhibitor, single point]. In the case of `COc1cc(SC)ccc1C(=O)Nc1cccc(S(=O)(=O)NC2=NCCC2)c1`, the Potency is reported as inconclusive [inhibitor, partial curve]. In the case of `Cc1cc(NC(=O)Cn2nc(-c3cccs3)ccc2=O)cc(C)c1Br`, the Potency is reported as inconclusive [inhibitor, partial curve]. For `O=C(CN1C(=O)/C(=C\c2ccc(F)cc2)Oc2ccccc21)N1CCN(c2ccccn2)CC1`, the “activity change, negative = inhibition” value was inactive: 1.74%. With `O=C(COC(=O)c1cccnc1Cl)Nc1ccc2c(c1)OCCO2` the “activity change, negative = inhibition” value was inactive: -4.92%. With `Cc1ccc(S(=O)(=O)NCCC(=O)Nc2nccs2)cc1` the Potency was inconclusive [inhibitor, single point]. With `CC(C)OCCCNc1ncnc2c1[nH]c1ccc(F)cc12` the Potency was active: 12.6 µM. For `COc1cc(/C=C2/SC(=O)N(CC(=O)N3CCCC3)C2=O)ccc1Oc1ccc([N+](=O)[O-])cn1`, the Potency was inconclusive [inhibitor, partial curve]. For `CCOc1cccc(/C=C/c2ccc3ccccc3n2)c1OC(C)=O`, the Potency was active: 11.2 µM. In the case of `COc1ccc(Cc2nnc(SCC(=O)c3ccc(OC)cc3)o2)cc1`, the Potency is reported as inconclusive [inhibitor, partial curve, poor fit]. In the case of `CCCNC(=S)Nc1cc2oc3ccccc3c2cc1OC`, the Potency is reported as inconclusive [inhibitor, partial curve, poor fit]. With `Cc1cc(NC(=O)CSc2ccc3nnc(CCNC(=O)c4ccccc4)n3n2)no1` the “activity change, negative = inhibition” value was inactive: 15.1%. For `CS(=O)(=O)Nc1ccccc1C(=O)Nc1cc(Cl)cc(Cl)c1`, the Potency was inconclusive [inhibitor, single point]. With `CCOc1cccc(NC(=O)c2ccc(S(=O)(=O)N3CCCC3)cc2)c1` the Potency was inconclusive [inhibitor, partial curve]. With `COc1cccc(C(=O)NCCSc2c(C)[nH]c3ccccc23)c1OC` the Potency was active: 12.6 µM. With `COc1cccc(C(=O)NNC(=O)Cc2csc(N)n2)c1` the Potency was inconclusive [inhibitor, single point]. In the case of `COc1ccc(-n2c(COc3ccc(C)cc3)nnc2SCC(N)=O)cc1`, the “activity change, negative = inhibition” value is reported as inactive: 10.4%. In the case of `CN1CCN(c2ccccc2NC(=O)c2ccc(-c3ccccc3)cc2)CC1`, the Potency is reported as inconclusive [inhibitor, single point]. For `CCOc1cccc(C(=O)NC2CCCCC2)c1`, the Potency was inconclusive [inhibitor, single point]. In the case of `Cc1onc(-c2ccccc2Cl)c1C(=O)NC(=S)Nc1ccc(C(C)C)cc1`, the Potency is reported as inconclusive [inhibitor, single point]. In the case of `O=C(COC(=O)c1ccc([N+](=O)[O-])s1)c1ccc[nH]1`, the “activity change, negative = inhibition” value is reported as inactive: -10.6%. With `Cc1nc(-c2ccc(F)cc2)c(CC(=O)N(C)CC(=O)Nc2ccccc2C(F)(F)F)s1` the Potency was inconclusive [inhibitor, full curve, poor fit]. For `O=C(Nc1cccc2ccccc12)c1nn(C23CC4CC(CC(C4)C2)C3)cc1[N+](=O)[O-]`, the Potency was inconclusive [inhibitor, single point]. In the case of `CC1CCC(C(C)C)C(OC(=O)CSc2nc(N)cc(=O)[nH]2)C1` (centres undefined), the Potency is reported as inconclusive [inhibitor, single point]. In the case of `c1cc2[nH]snc2c2nc(C3CC3)nc12`, the Potency is reported as inconclusive [inhibitor, single point].
